T/C data for 16 compounds are collected here from PubChem BioAssay AID332 (DTP/NCI, 2004).

This assay deals with mice, ADJ-PC-20 plasma cell tumor sc, T/C %. Briefly: NCI In Vivo Anticancer Drug Screen. Data for tumor model ADJ-PC-20 Plasma Cell (subcutaneous) in unknown mice. The conditions noted are these: endpoint: mean tumor weight, higher = larger tumour. On the procedure:
The antitumor activity of compounds was measured in mice bearing transplantable tumors. Survival or tumor size were measured and the results are expressed as the measurement made in the treated group (T) divided by the measurement made in the vehicle treated control group (C). The tumor model used in this assay is ADJ-PC-20 Plasma Cell (subcutaneous) in unknown mice

The mark [1] stands for this setting: dose: 250.0 mg/kg/injection, schedule: Q01DX010 (sc), vehicle: steriod suspending solution.

Results filed as inconclusive are left out. Not every entry of the source has a single result; some have several. They are shown here; other results are not. An entry can have further records. Results that share an entry are repeats in other runs, samples, wells, individuals or studies.

As for `Cc1n[nH]c(=O)[nH]c1=O`, the T/C (dose: 400.0 mg/kg/injection, schedule: Q01DX010 (ip), vehicle: other) was 69 % of control and 105 % of control.
As for `CN(C)c1ccc(/C=C/c2ccnc3ccccc23)cc1`, the T/C (dose: 4.0 mg/kg/injection, schedule: Q01DX010 (ip), vehicle: carboxymethylcellulose (CMC)) is 119 % of control and 158 % of control.
As to `S=P(N1CCOCC1)(N1CC1)N1CC1`, where the note is “dose: 6.25 mg/kg/injection, schedule: Q01DX010 (ip), vehicle: carboxymethylcellulose (CMC)”, the T/C is 22 % of control, 51 % of control, 60 % of control.
On to `O=C(Nc1ccc(C2=NCCN2)cc1)c1ccc(C(=O)Nc2ccc(C3=NCCN3)cc2)c(Cl)c1`, for which the T/C runs as follows: (dose: 15.0 mg/kg/injection, schedule: Q01DX010 (ip), vehicle: water) 62 % of control and 90 % of control; (dose: 25.0 mg/kg/injection, schedule: Q01DX010 (ip), vehicle: water) 62 % of control and 112 % of control.
`CC[C@H](c1ccc(O)cc1)[C@@H](CC)c1ccc(O)cc1`: for the setting “dose: 125.0 mg/kg/injection, schedule: Q01DX010 (sc), vehicle: steriod suspending solution”, the T/C was 67 % of control and 180 % of control.
Take `C[C@]12CCC(=O)C[C@H]1CC[C@@H]1[C@@H]2CC[C@@]2(C)[C@H]1CC[C@]2(C)O`: the T/C under setting [1] was 95 % of control and 122 % of control.
On to `Clc1ccc(C(c2ccccc2Cl)C(Cl)Cl)cc1` (stereo not drawn), for which the T/C (dose: 100.0 mg/kg/injection, schedule: Q01DX010 (sc), vehicle: steriod suspending solution) is 41 % of control and 92 % of control.
Turning to `CN(Cc1cnc2nc(N)nc(N)c2n1)c1ccc(C(=O)N[C@@H](CCC(=O)O)C(=O)O)cc1`, the T/C (dose: 0.16 mg/kg/injection, schedule: Q01DX010 (ip), vehicle: other) is listed as 42 % of control, 90 % of control, 103 % of control.
Turning to `CCOC(N)=O`, the T/C (dose: 500.0 mg/kg/injection, schedule: Q01DX010 (ip), vehicle: saline) was 21 % of control and 56 % of control.
On to `N=[N+]=CC(=O)OCC(N)C(=O)O` (stereo not drawn), for which the T/C (dose: 2.5 mg/kg/injection, schedule: Q01DX010 (ip), vehicle: saline) was 76 % of control and 109 % of control.
Regarding `O=C1C(NC(=O)C2CCCCC2)=C(N2CC2)C(=O)C(NC(=O)C2CCCCC2)=C1N1CC1`, under “dose: 75.0 mg/kg/injection, schedule: Q01DX010 (ip), vehicle: carboxymethylcellulose (CMC)”, the T/C is 24 % of control and 92 % of control.
`O=NN(CCCl)C(=O)NCCCl`: where the note is “dose: 3.1 mg/kg/injection, schedule: Q01DX010 (ip), vehicle: saline”, the T/C was 15 % of control and 77 % of control.
Turning to `O=c1[nH]c(=O)n(C2CC(O)C(CO)O2)cc1Br` (stereo not drawn), the T/C (dose: 250.0 mg/kg/injection, schedule: Q01DX010 (ip), vehicle: carboxymethylcellulose (CMC)) is 33 % of control and 89 % of control.
For `CC[C@]1(O)C[C@H]2CN(CCc3c([nH]c4ccccc34)[C@@](C(=O)OC)(c3cc4c(cc3OC)N(C=O)[C@H]3[C@@](O)(C(=O)OC)[C@H](OC(C)=O)[C@]5(CC)C=CCN6CC[C@]43[C@@H]65)C2)C1`, the T/C (dose: 0.25 mg/kg/injection, schedule: Q01DX010 (ip), vehicle: water) was 89 % of control and 117 % of control.
`Nc1nc2n[nH]nc2c(=O)[nH]1`: the T/C (dose: 25.0 mg/kg/injection, schedule: Q01DX010 (ip), vehicle: other) was 95 % of control and 170 % of control; the T/C (dose: 50.0 mg/kg/injection, schedule: Q01DX010 (ip), vehicle: other) is 52 % of control and 95 % of control.
With `C[C@]12CCC(=O)C=C1CC[C@@H]1[C@@H]2CC[C@@]2(C)[C@H]1CC[C@]2(C)O`, the T/C under setting [1] is 88 % of control and 117 % of control.
